Measured values: patent US20250313546A1, “NUCLEIC ACID BINDERS” (UNIVERSITY OF STRATHCLYDE, priority 2022, published 2025)
pIC50: −log10 of the molar value.

Experiments:
[1] = test system: T. b. brucei Lister S427 (a drug-sensitive wild type); assay: Resazurin-based (Alamar blue) drug sensitivity assay; settings: for pIC50: Trypanosoma brucei, read-out: IC50 T.b. brucei; for T.b. brucei Selectivity Indices (SI, IC50 (μM)/IC50 (μM)) Group / T.b. brucei Selectivity Index (SI, IC50 (μM)/IC50 (μM)), numeric value: cytotoxicity against HEK293 cells vs T.b. brucei
[2] = test system: T. congolense IL3000 (a drug sensitive wild type); assay: as above; settings: Trypanosoma congolense, read-out: IC50 T. congo
Method: A detailed description of the procedure for evaluating activity against trypanosomes, using an Alamar Blue (resazurin) assay, is described below.
The BSF T. congolense IL3000 and a clonal line, 6C3, adapted from IL3000 in vitro with diminazene aceturate (Merck), leading to a ˜10-fold resistance, were cultured in TCBSF3 medium without red blood cells (see Zheoat, A. M. et al., 2021, Pathogens (Basel, Switzerland), 10(2), 175). Dulbecco's minimum essential medium (MEM) was supplemented with 25 mM (4-(2-hydroxyethyl)-1-piperazineethanesulfonic acid) (HEPES), 26 mM NaHCO3, 5.6 mM Dd-glucose, 1 mM sodium pyruvate, 40 μM adenosine, 100 μM hypoxanthine, 16.5 μM thymidine, and 25 μM bathocuproinedisulfonic acid disodium salt. To this basal medium were added β-mercaptoethanol (0.0014% v/v), 1.6 mM glutamine, 100 units/mL penicillin/0.1 mg/mL streptomycin (Gibco), 20% goat serum (Gibco), and 5% Serum Plus (SAFC Bi-osciences) (see Coustou, V. et al., 2010, PLoS Negl. Trop. Dis., 4, e618 and Giordani, F. et al., J. Med. Chem., 2019, 62, 3021-3035). The BSF T. congolense IL3000 WT and its derived line, 6C3, were cultured at 34° C. in a humidified, 5% CO2 environment.
A resazurin-based (Alamar blue) drug sensitivity assay was used to assess and compare the activity of standard trypanocides in the different cell lines investigated (see Gould, M. K. et al., Anal. Biochem., 2008, 382, 87-93). Briefly, 23 doubling dilutions of the test compound of the invention, starting at 100 μM, and a compound-free control were prepared in 100 μL medium in a 96-well white plate (Greiner Bio-one, Frickenhausen, Germany). The cells were adjusted to 2×10^4 cells/mL for T. b. brucei and T. equiperdum; 4×10^4 cells/mL for T. evansi; and 5×10^5 cells/mL for T. congolense in the appropriate medium. 100 μL of the adjusted cells was then added to the wells containing drug dilutions and incubated for 48 h under respective culture condition. Thereafter, 20 μL of 125 mg/mL resazurin sodium dye was added, and the plate was incubated for a further 24 h. The resorufin fluorescence in each well of the plate was determined and used to calculate the Half maximal effective concentration (EC50) of the drug, as described in Carruthers, L. V. et al., Mol. Microbiol., 2021, 116, 564-588.

SMILES | pIC50 [1] | pIC50 [2] | T.b. brucei Selectivity Indices (SI, IC50 (μM)/IC50 (μM)) Group ([1]; Alkyl Amidines and NH Pyrroles) | T.b. brucei Selectivity Index (SI, IC50 (μM)/IC50 (μM)), numeric value [1] | T.b. brucei Selectivity Indices (SI, IC50 (μM)/IC50 (μM)) Group ([1]; Quaternary ammoniums) | T.b. brucei Selectivity Indices (SI, IC50 (μM)/IC50 (μM)) Group ([1]; Amides)
CCCCCCCCCCCCCCCCCC[N+](C)(C)CCNC(=O)c1cc(NC(=O)c2cc(NC(=O)c3ccc(/C=C/c4cnc5ccccc5c4)cc3)cn2C)cn1C [Ic17, (E)-N,N-dimethyl-N-(2-(1-methyl-4-(1-methyl-4-(4-(2-(quinolin-3-yl)vinyl)benzamido)-1H-pyrrole-2-carboxamido)-1H-pyrrole-2-carboxamido)ethyl)octadecan-1-aminium] | < 6.00 | < 6.00 |  |  |  | 
[H]/N=C(\CCNC(=O)c1cc(NC(=O)c2cc(NC(=O)c3ccc(C=Cc4ccc(C#N)cc4)cc3)cn2C)cn1C)NCC [Ia16, (E)-4-(4-(4-cyanostyryl)benzamido)-N-(5-((3-(ethylamino)-3-iminopropyl)carbamoyl)-1-methyl-1H-pyrrol-3-yl)-1-methyl-1H-pyrrole-2-carboxamide] | 6.00 to 6.60 | 6.60 to 7.30 | C (Group C: 150 < SI <= 300) | 164 |  | 
CC/N=C(\N)CCNC(=O)c1cc(NC(=O)c2cc(NC(=O)c3ccc(/C=C/c4ccc5nonc5c4)cc3)cn2C)cn1C [Ia12, N—((Z)-3-amino-3-(ethylimino)propyl)-4-(4-(4-((E)-2-(benzo[c][1,2,5]oxadiazol-5-yl)vinyl)benzamido)-1-methyl-1H-pyrrole-2-carboxamido)-1-methyl-1H-pyrrole-2-carboxamide] | > 7.30 | < 6.00 | D (Group D: SI > 300) | 730 |  | 
CCCCCCC/N=C(/CCNC(=O)c1cc(NC(=O)c2cc(NC(=O)c3ccc(/C=C/c4cnc5ccccc5c4)cc3)cn2C)cn1C)NCCCCCCC [Ia37, N—((Z)-3-(heptylamino)-3-(heptylimino)propyl)-1-methyl-4-(1-methyl-4-(4-((E)-2-(quinolin-3-yl)vinyl)benzamido)-1H-pyrrole-2-carboxamido)-1H-pyrrole-2-carboxamide] | < 6.00 | < 6.00 |  |  |  | 
COc1cccc(/C=C/c2ccc(C(=O)Nc3cc(C(=O)Nc4cc(C(=O)NCCC(=N)N)n(C)c4)n(C)c3)cc2)c1 [Ref-5, reference compound] |  |  | A (Group A: SI < 70) |  |  | 
CCCC/N=C(\CCNC(=O)c1cc(NC(=O)c2cc(NC(=O)c3ccc(/C=C/c4cnc5ccccc5c4)cc3)cn2C)cn1C)NCCCC [Ia38, N—((E)-3-(butylamino)-3-(butylimino)propyl)-1-methyl-4-(1-methyl-4-(4-((E)-2-(quinolin-3-yl)vinyl)benzamido)-1H-pyrrole-2-carboxamido)-1H-pyrrole-2-carboxamide] | 6.60 to 7.30 | 6.60 to 7.30 |  |  |  | 
CCCCC[N+](C)(C)CCNC(=O)c1cc(NC(=O)c2cc(NC(=O)c3ccc(/C=C/c4cnc5ccccc5c4)cc3)cn2C)cn1C [Ic4, (E)-N,N-dimethyl-N-(2-(1-methyl-4-(1-methyl-4-(4-(2-(quinolin-3-yl)vinyl)benzamido)-1H-pyrrole-2-carboxamido)-1H-pyrrole-2-carboxamido)ethyl)pentan-1-aminium] | 6.60 to 7.30 | > 7.30 |  | 107 | C (Group C: 80 < SI <= 120) | 
Cn1cc(NC(=O)c2ccc(/C=C/c3cnc4ccccc4c3)cc2)cc1C(=O)Nc1cc(C(=O)N2CCCCC2)n(C)c1 [IVb1, (E)-1-methyl-N-(1-methyl-5-(piperidine-1-carbonyl)-1H-pyrrol-3-yl)-4-(4-(2-(quinolin-3-yl)vinyl)benzamido)-1H-pyrrole-2-carboxamide] | 6.00 to 6.60 | < 6.00 |  |  |  | C (Group C: 1.5 < SI <= 3)
CC[N+](C)(C)CCNC(=O)c1cc(NC(=O)c2cc(NC(=O)c3ccc(/C=C/c4cnc5ccccc5c4)cc3)cn2C)cn1C [Ic1, (E)-N-ethyl-N,N-dimethyl-2-(1-methyl-4-(1-methyl-4-(4-(2-(quinolin-3-yl)vinyl)benzamido)-1H-pyrrole-2-carboxamido)-1H-pyrrole-2-carboxamido)ethan-1-aminium] | > 7.30 | 6.60 to 7.30 |  |  |  | 
C/N=C(/CCNC(=O)c1cc(NC(=O)c2cc(NC(=O)c3ccc(/C=C/c4ccc5ccccc5c4)cc3)cn2C)cn1C)NC [Ia7, 1-methyl-4-(1-methyl-4-(4-((E)-2-(naphthalen-2-yl)vinyl)benzamido)-1H-pyrrole-2-carboxamido)-N—((Z)-3-(methylamino)-3-(methylimino)propyl)-1H-pyrrole-2-carboxamide] | 6.00 to 6.60 | > 7.30 |  |  |  | 
Cn1cc(NC(=O)c2ccc(/C=C/c3cnc4ccccc4c3)cc2)cc1C(=O)Nc1cc(C(=O)N2CCCCCC2)n(C)c1 [IVb3, (E)-N-(5-(azepane-1-carbonyl)-1-methyl-1H-pyrrol-3-yl)-1-methyl-4-(4-(2-(quinolin-3-yl)vinyl)benzamido)-1H-pyrrole-2-carboxamide] | 6.00 to 6.60 | < 6.00 |  | 6 |  | D (Group D: SI > 3)
COCCOCCOCCNC(=O)c1cc(NC(=O)c2cc(NC(=O)c3ccc(/C=C/c4cnc5ccccc5c4)cc3)cn2C)cn1C [IVa8, (E)-N-(2-(2-(2-methoxyethoxy)ethoxy)ethyl)-1-methyl-4-(1-methyl-4-(4-(2-(quinolin-3-yl)vinyl)benzamido)-1H-pyrrole-2-carboxamido)-1H-pyrrole-2-carboxamide] | < 6.00 | < 6.00 |  |  |  | D (Group D: SI > 3)
CN1CCN(C(=N)CCNC(=O)c2cc(NC(=O)c3cc(NC(=O)c4ccc(/C=C/c5cnc6ccccc6c5)cc4)cn3C)cn2C)CC1 [Ib3, (E)-N-(3-imino-3-(4-methylpiperazin-1-yl)propyl)-1-methyl-4-(1-methyl-4-(4-(2-(quinolin-3-yl)vinyl)benzamido)-1H-pyrrole-2-carboxamido)-1H-pyrrole-2-carboxamide] | 6.60 to 7.30 | 6.00 to 6.60 |  |  |  | 
COc1cccc(/C=C/c2ccc(C(=O)Nc3cc(C(=O)Nc4cc(C(=O)NCCN5CCOCC5)n(C)c4)n(C)c3)cc2)c1 [Ref-1, reference compound] |  |  | A (Group A: SI < 70) |  |  | 
CCNC(=N)CCNC(=O)c1cc(NC(=O)c2cc(NC(=O)c3ccc(/C=C/c4cccc(OC)c4)cc3)cn2C)cn1C [Ia22, (E)-N-(3-(ethylamino)-3-iminopropyl)-4-(4-(4-(3-methoxystyryl)benzamido)-1-methyl-1H-pyrrole-2-carboxamido)-1-methyl-1H-pyrrole-2-carboxamide] | 6.00 to 6.60 | > 7.30 |  |  |  | 
COc1ccc(/C=C/c2ccc(C(=O)Nc3cc(C(=O)Nc4cc(C(=O)NCCN5CCOCC5)n(C)c4)n(C)c3)cn2)cc1 [Ref-2, reference compound] |  |  | A (Group A: SI < 70) |  |  | 
CN(C)CCNC(=O)c1cc(NC(=O)c2cc(NC(=O)c3ccc(/C=C/c4cnc5ccccc5c4)cc3)cn2C)cn1C [Ref-7, (E)-N-(2-(dimethylamino)ethyl)-1-methyl-4-(1-methyl-4-(4-(2-(quinolin-3-yl)vinyl)benzamido)-1H-pyrrole-2-carboxamido)-1H-pyrrole-2-carboxamide, reference compound] |  |  | A (Group A: SI < 70) |  | A (Group A: SI < 40) | 
Cn1cc(NC(=O)c2cc(NC(=O)c3ccc(/C=C/c4ccc(C(F)(F)F)cc4)cc3)cn2C)cc1C(=O)NCCC(=N)N [Ref-6, reference compound] |  |  | A (Group A: SI < 70) |  |  | 
Cn1cc(NC(=O)c2cc(NC(=O)c3ccc(/C=C/c4cnc5ccccc5c4)cc3)cn2C)cc1C(=O)NCCN1CCOCC1 [Ref-3, (E)-1-methyl-4-(1-methyl-4-(4-(2-(quinolin-3-yl)vinyl)benzamido)-1H-pyrrole-2-carboxamido)-N-(2-morpholinoethyl)-1H-pyrrole-2-carboxamide, reference compound] |  |  | A (Group A: SI < 70) |  |  | A (Group A: SI < 0.7)
